Assay results: article PMC4336329 (PLoS ONE, 2015)
Hit rate of the full screen: of about 310,000 compounds, about 14,000 (4.5%) showed an effect of 50% or more. The effect is printed as a negative number. Some of the results follow.

target: human ether-à-go-go-related gene (hERG) potassium channel (human, UniProt Q12809); experiment: primary screen, population patch clamp on CHO cells stably expressing hERG
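Also: peak tail current of the secondary pulse compared with the same well before compound.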

Sequence of human ether-à-go-go-related gene (hERG) potassium channel (Q12809 whole entry, looked up): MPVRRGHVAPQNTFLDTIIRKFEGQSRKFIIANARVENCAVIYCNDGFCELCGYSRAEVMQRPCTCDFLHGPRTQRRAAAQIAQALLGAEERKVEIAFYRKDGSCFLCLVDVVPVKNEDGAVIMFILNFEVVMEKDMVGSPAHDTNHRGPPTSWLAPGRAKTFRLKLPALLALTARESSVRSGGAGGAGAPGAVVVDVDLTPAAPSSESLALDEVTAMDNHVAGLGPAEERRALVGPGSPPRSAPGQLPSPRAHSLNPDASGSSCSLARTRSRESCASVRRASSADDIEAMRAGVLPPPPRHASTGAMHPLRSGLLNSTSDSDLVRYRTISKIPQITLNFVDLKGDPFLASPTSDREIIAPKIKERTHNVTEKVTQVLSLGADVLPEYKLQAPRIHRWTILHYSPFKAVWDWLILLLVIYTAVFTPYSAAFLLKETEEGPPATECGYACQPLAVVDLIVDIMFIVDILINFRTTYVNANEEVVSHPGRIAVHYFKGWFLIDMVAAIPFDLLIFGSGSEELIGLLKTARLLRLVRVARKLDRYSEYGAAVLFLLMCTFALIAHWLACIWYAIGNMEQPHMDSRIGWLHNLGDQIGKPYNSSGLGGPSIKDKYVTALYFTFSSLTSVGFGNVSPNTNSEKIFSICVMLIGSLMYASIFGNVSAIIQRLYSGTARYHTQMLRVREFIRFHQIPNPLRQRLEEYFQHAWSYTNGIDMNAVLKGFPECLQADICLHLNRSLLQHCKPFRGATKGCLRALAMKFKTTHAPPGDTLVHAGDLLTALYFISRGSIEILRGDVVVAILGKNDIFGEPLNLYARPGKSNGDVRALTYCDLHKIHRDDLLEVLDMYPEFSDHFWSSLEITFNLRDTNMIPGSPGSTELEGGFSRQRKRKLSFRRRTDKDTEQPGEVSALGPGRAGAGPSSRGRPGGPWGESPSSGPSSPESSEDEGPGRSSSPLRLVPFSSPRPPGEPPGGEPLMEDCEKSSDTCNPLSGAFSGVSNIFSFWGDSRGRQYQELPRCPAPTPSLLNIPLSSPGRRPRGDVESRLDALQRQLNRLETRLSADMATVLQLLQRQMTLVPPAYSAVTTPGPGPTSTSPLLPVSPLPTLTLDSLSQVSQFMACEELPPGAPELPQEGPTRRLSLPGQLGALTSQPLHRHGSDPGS

Compound | hERG current change (%, negative = inhibition) at 10uM
O=S(=O)(CC(O)CS(=O)(=O)c1ccc(Cl)cc1)c1ccccc1 (stereo not shown) | 2.2%
CC(C)CNC(C(=O)Nc1ccc([N+](=O)[O-])cc1Br)c1ccccc1.O=C(O)C(=O)O (stereo not shown) | -9.16%
Cc1noc(C)c1C(=O)N1CCC2(CC1)OCCO2 | 26.3%
COCCN1C(=O)c2ccccc2C(C(=O)NCC2CCCO2)C1c1c[nH]c2ccccc12 (stereo not shown) | -1.45%
Cc1noc(C)c1C(=O)NC(C)c1ccc2c(c1)OCO2 (stereo not shown) | -6.47%
CSC1=C(C#N)C(c2cccc(Br)c2)CC(=O)N1 (stereo not shown) | -5.27%
CCc1ccc(S(=O)(=O)Nc2ccc(O)c3c(=O)cc(-c4ccccc4Cl)oc23)cc1 | 0.145%
O=C(COC(=O)/C=C/c1ccc(Cl)cc1Cl)NCc1ccco1 | 15.5%
c1ccc(CSc2nnc3ccc(-c4ccncc4)nn23)nc1 | 7.44%
COc1ccc(C(C)=O)cc1COc1ccc(Cl)c(C)c1 | 11.2%
O=C(O)c1cc(S(=O)(=O)Nc2ccccc2Cc2ccccc2)ccc1Cl | 30.4%
CCc1nnc(NS(=O)(=O)c2ccc(NC(=S)NC(=O)c3ccncc3)cc2)s1 | -12.7%
CC(OC(=O)CSc1ccc([N+](=O)[O-])cc1)C(=O)NCc1ccccc1 (stereo not shown) | -1.86%
CCOC(=O)CSc1nc2c(sc(=S)n2-c2ccc(OCC)cc2)c(=O)[nH]1 | 15.5%
COCCNC(=S)N/N=C/c1ccc(OCc2ccc(C(=O)OC)cc2)c(OC)c1 | 21.5%
O=C(CNC(=O)C12CC3CC(CC(C3)C1)C2)N/N=C\c1ccco1 | 5.05%
COc1cccc(-c2cc(C(=O)NCCCN3CCOCC3)no2)c1 | -14%
CC(=O)NC(C)C12CC3CC(CC(CC(=O)O)(C3)C1)C2 (stereo not shown) | 13.2%
CCC(=O)Nc1nc2cc(OC)ccc2s1 | -1.05%
CCOC(=O)C(NC(=O)c1ccccc1)(N1CCOCC1)C(F)(F)F (stereo not shown) | 4.58%

Compound | hERG current change (%, negative = inhibition) at 10uM
O=C(CCCN1C(=O)/C(=C/c2cccs2)SC1=S)Nc1ccccn1 | 23.9%
Fc1ccc(C2CCCCN2Cc2nc(CC3CC3)no2)cc1 (stereo not shown) | -11.7%
O=C(CSc1nc(=O)[nH]c2c1CCCC2)Nc1ccc(F)cc1F | -4.34%
CCCCNC(=S)NNC(=O)c1cc(C)on1 | 12.4%
Cc1nc(SCc2ccccc2)c(C(F)(F)F)c(=O)[nH]1 | 4.6%
O=C(NCc1ccccc1)c1cccn(Cc2cccc(Cl)c2)c1=O | -17.6%
COC(=O)c1cc2c(s1)-c1cc(F)ccc1OC2 | 15.3%
CCc1ccc(NC(=O)CS(=O)CC(=O)N2CCN(c3ccccc3F)CC2)cc1 (stereo not shown) | -2.72%
COc1cc(/C=N/NC(=O)COc2ccccc2C)ccc1OC(=O)c1cccs1 | -0.671%
CC(C)N1CCN(Cc2ccc(Oc3ncccn3)cc2)CC1CCO (stereo not shown) | 10.9%
COc1ccc(-n2nnc3c(SCC(=O)NCc4ccco4)ncnc32)cc1 | -10.6%
Cc1cc(C)cc(OCC(=O)Nc2ccc(-n3cnnn3)cc2)c1 | 1.14%
CCSc1nnc(NC(=O)COc2ccccc2[N+](=O)[O-])s1 | -0.55%
CC(C)CC(OC(=O)c1cccs1)C(=O)NCC1CCCO1 (stereo not shown) | 11.6%
CCCCNC(=S)NNC(=O)c1ccco1 | 1.53%
C[C@]12CCC3[C@@H](CCC4=CC(=O)CC[C@@]43CO)C1CCC2=O (stereo partly shown) | -4.45%
Cc1nn(C(C)C(=O)NCCCc2ccccc2)c(=O)c2nn(-c3ccccc3)c(C)c12 (stereo not shown) | -20%
CC(=O)CCC(=O)OCC(=O)Nc1ccc(SC(F)F)cc1 | -14%
CN1C2CCC1CC(OC(=O)c1ccc([N+](=O)[O-])cc1)C2 (stereo not shown) | -67.9%
CCCn1c(SCC(=O)c2ccc(CC)cc2)n[nH]c1=O | 16.4%

Compound | hERG current change (%, negative = inhibition) at 10uM
Cc1cc(C)nc(N/N=C/c2ccc(Cl)cc2)n1 | -25.9%
O=c1[nH]c(O)c(N=Nc2ccc([N+](=O)[O-])cc2)c(=O)[nH]1 | 12.1%
Cc1noc(C)c1S(=O)(=O)N1Cc2ccccc2CC1C(=O)N(C)C (stereo not shown) | -8.91%
O=C(Nc1cc(S(=O)(=O)N2CCCC2)ccc1Cl)C1=COCCO1 | -4.81%
O=c1c2ccccc2nc(/C=C/c2ccc(O)cc2)n1-c1ccccc1O | 8.48%
Cn1c(CNc2ccc(F)cc2)nc2ccccc21 | -2.66%
CCOc1ccc(C(O)(CCC(C)C)C(CN2CCOCC2)c2ccccc2)cc1.Cl (stereo not shown) | 13.3%
CC(O)C(O)C(O)C(O)C1NCCS1 (stereo not shown) | 6.81%
O=C(CCN1C(=O)/C(=C/c2cccs2)SC1=S)Nc1ccccn1 | 22.1%
Cc1cc(C)c(C#N)c(Sc2ccccc2N)n1 | 17.8%
O=C1C2C3C=CC(C4CC34)C2C(=O)N1c1cccc2ccccc12 (stereo not shown) | -0.113%
Cc1cccc(NC(=O)c2ccc3c(c2)OCCO3)c1C | 4.75%
COc1ccc(C2=NN(CCC(=O)NC3CCC(C)CC3)C(=O)CC2)cc1 (stereo not shown) | 3.99%
Cc1nc(C)c(C(=O)Nc2ccccc2-c2ccccc2)o1 | -1.46%
CCN(CC)c1ccc(N=Cc2c(O)n(-c3ccccc3)c(=O)[nH]c2=O)cc1 | -35.3%
COC(=O)C1=C[C@@H](C(=O)OC)C2C3=C(C(=O)C24CCCCC4)[C@H](C)n2c(=O)n(-c4ccccc4)c(=O)n2[C@@H]3C1 (stereo partly shown) | -0.241%
O=C1OCCN1C(=O)[C@H]1[C@H](c2ccc(Cl)cc2)C(c2cccc(Cl)c2)=NN1c1ccccc1 | 14%
NC(=O)COC(=O)CNC(=O)c1ccc(Cl)cc1 | 12.6%
